Measured values: paper PMC10726135
This is one part of the list. At the low end of the ranking the order means little. The protein was read in a cell extract, so binding may be indirect.

target: T1, HNF4alpha8 (COS-7 nuclear extract) (UniProt P41235-5); assay: protein-binding microarray; settings: COS-7 nuclear extract on double-stranded Agilent 4x180k PBM; binding buffer, salt, pH and temperature not given; high values mean tight binding; double strand, one strand shown; sequences stand for … in …GCCTAGGGAGATTAGAGTATCGGTCGA
T1 sequence: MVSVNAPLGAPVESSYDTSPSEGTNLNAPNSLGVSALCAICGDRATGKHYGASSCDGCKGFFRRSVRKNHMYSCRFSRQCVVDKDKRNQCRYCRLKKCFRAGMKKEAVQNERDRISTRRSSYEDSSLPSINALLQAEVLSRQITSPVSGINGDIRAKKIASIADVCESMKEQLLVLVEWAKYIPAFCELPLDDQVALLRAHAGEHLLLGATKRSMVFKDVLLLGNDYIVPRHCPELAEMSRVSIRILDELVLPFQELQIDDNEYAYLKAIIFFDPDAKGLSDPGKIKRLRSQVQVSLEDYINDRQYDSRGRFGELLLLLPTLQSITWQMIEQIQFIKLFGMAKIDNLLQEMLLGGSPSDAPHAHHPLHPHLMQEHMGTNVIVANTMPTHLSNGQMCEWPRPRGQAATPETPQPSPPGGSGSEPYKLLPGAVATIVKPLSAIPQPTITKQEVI

Question: How did the binding signal (log2 normalized intensity) turn out when CATGCTATGCTCTCTCTCCACCTGGAGGGA was run?
Answer: -0.886

Question: ATTTTACTACTAACCGAAAGTCTGACCCTT was tested. Which binding signal (log2 normalized intensity) did it give?
Answer: 5.19

Question: How did the binding signal (log2 normalized intensity) turn out when TCTAAGGCAAAACACCCCTTTCACTTCTTC was run?
Answer: 0.915

Question: Which binding signal (log2 normalized intensity) does the source give for CAACTTTCTCCTCCAGGACCTTGCCCTTTA here?
Answer: 5.41

Question: ACAAGGAGATGGCCCCTCTCTTTTATTATA was tested. Which binding signal (log2 normalized intensity) did it give?
Answer: 0.411

Question: How did the binding signal (log2 normalized intensity) turn out when TAAGGTTTCTCAGCCCCATCCCCCAATACA was run?
Answer: 5.76

Question: With AGACAGAAGTAAAACAGGTAGAGAGCTGTC as the sequence, how does the binding signal (log2 normalized intensity) read?
Answer: -1.22

Question: Which binding signal (log2 normalized intensity) does the source give for GTCTTACTGATGGGCAAAGTTTTCAAGAAT here?
Answer: 1.24

Question: With AGTGGCCTGAGGCAGCCAGTGAGTGCAGCA as the sequence, how does the binding signal (log2 normalized intensity) read?
Answer: -1.07

Question: For CAGAGTTCACCCCATTTTGTCCCTCCCTGC, which binding signal (log2 normalized intensity) is on record?
Answer: 3.92

Question: Which binding signal (log2 normalized intensity) does the source give for CCATCTTGTGGCCATGCTTAGGACTGCAGG here?
Answer: -0.417

Question: With TCTGCTGTACATATTTGCCAAGTGATAAGG as the sequence, how does the binding signal (log2 normalized intensity) read?
Answer: 1.01

Question: How did the binding signal (log2 normalized intensity) turn out when AAGAAGCTCTGGCGCCATCTGGTTTCTTTA was run?
Answer: -1.02

Question: How did the binding signal (log2 normalized intensity) turn out when TACACAGCAGCTTTAGTCAGAGATTTCTTT was run?
Answer: -1.21

Question: With TGTGAGCCAATTCAGCAAACAAAGGCACTT as the sequence, how does the binding signal (log2 normalized intensity) read?
Answer: -0.957

Question: For GGCGTGCTGTGTACTTTGAACTGAAGGATA, which binding signal (log2 normalized intensity) is on record?
Answer: 5.65

Question: With AAAGCCCAAGGGATGTCCATGAGGAGTTAA as the sequence, how does the binding signal (log2 normalized intensity) read?
Answer: -1.22

Question: With TAAGGACAACCGGTAGCACAACATACTTGG as the sequence, how does the binding signal (log2 normalized intensity) read?
Answer: -1.33

Question: For AGGGGCACTCTCTGTTATCAGACACAAGAA, which binding signal (log2 normalized intensity) is on record?
Answer: -1.25

Question: With CAGGAATGTTCAAGAAGTTCCAAAGGCCAG as the sequence, how does the binding signal (log2 normalized intensity) read?
Answer: 2.27

Question: How did the binding signal (log2 normalized intensity) turn out when ACCAGAACTTCTTATCACTTGGTGGACATG was run?
Answer: 1.66

Question: For GGGCAGCAAACCTACCTGAACTTTGCCCCA, which binding signal (log2 normalized intensity) is on record?
Answer: 8.83

Question: Which binding signal (log2 normalized intensity) does the source give for TCAAAGGTCAAAGGGCATAGCCTCAGGGAC here?
Answer: 5.77

Question: Which binding signal (log2 normalized intensity) does the source give for CTGCTTCCAAAGAGCTCAACCTGTGAAAAT here?
Answer: -1.36

Question: ATCAAATCCTAACATGCTGCAGGCATTTCT was tested. Which binding signal (log2 normalized intensity) did it give?
Answer: -1.11

Question: With TCAAGCTCAATGCAACCAGTTGGTGGGTCA as the sequence, how does the binding signal (log2 normalized intensity) read?
Answer: 1.44

Question: CACTCTCTGGGTTAAACGTGCAGCAATAGG was tested. Which binding signal (log2 normalized intensity) did it give?
Answer: 0.84

Question: For TTTCTCCCCTGACTACCAGCCAGTAGGAGT, which binding signal (log2 normalized intensity) is on record?
Answer: 1.66

Question: With AATTTAGATACTCACCAGTGGGCCCAGAGC as the sequence, how does the binding signal (log2 normalized intensity) read?
Answer: -1.38

Question: With TTGAGAACTTTGACACCGAGGCATATTTAA as the sequence, how does the binding signal (log2 normalized intensity) read?
Answer: 1.3

Question: With CCGAGAATGCAGCCTTATCTTCCAGCCCTG as the sequence, how does the binding signal (log2 normalized intensity) read?
Answer: -1.31

Question: For CATGACCCTTTGCAGGTGGGAGAGGGGGAC, which binding signal (log2 normalized intensity) is on record?
Answer: -1.01

Question: GTCCAAGAAAAAGGAGCAGATGGCTAGTGA was tested. Which binding signal (log2 normalized intensity) did it give?
Answer: -1.36

Question: Which binding signal (log2 normalized intensity) does the source give for TTCTAGGTAGATAAGGGAGTTTCAGAGGAC here?
Answer: -1.35

Question: How did the binding signal (log2 normalized intensity) turn out when GACTTTAATCTCCAAGTAACTGAAACTACA was run?
Answer: -1.31

Question: Which binding signal (log2 normalized intensity) does the source give for GGGGTCAGATAATTCTTTGCTGTGGTAGGC here?
Answer: 1.74

Question: With GCTTTAAAATGGGTACAGACAATAGGAAGA as the sequence, how does the binding signal (log2 normalized intensity) read?
Answer: -1.27

Question: For GGAGGCCGCGACAAGCGTCGCTGAGTGGAG, which binding signal (log2 normalized intensity) is on record?
Answer: -1.32

Question: ACACACGTTCCTGACAGACTGCCATTCCAG was tested. Which binding signal (log2 normalized intensity) did it give?
Answer: -1.37

Question: For CTGGCATCTGGTCAGGGGTCAAGAAGCTCT, which binding signal (log2 normalized intensity) is on record?
Answer: 3.11
